Experimental data from paper PMC9911399, “Two distinct binding modes provide the RNA-binding protein RbFox with extraordinary sequence specificity”.
Positions count from the first letter of the chain named. The list shows a part of the results.

T1: RBFOX1 RRM (Homo sapiens, UniProt Q9NWB1 109-208)
T1 sequence: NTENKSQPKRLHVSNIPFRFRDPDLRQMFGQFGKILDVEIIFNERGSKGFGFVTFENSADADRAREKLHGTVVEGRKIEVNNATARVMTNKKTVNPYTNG

B1: CCAAAGG (DNA:RNA)
RNA: GGGAGACCGGAAUUCAGAUUGUCCCCAAAGGUUAAAUCCCGUCGUAGCCACCA
DNA 1: CAATCTGAATTCCGGTCTCCC
DNA 2: TGGTGGCTACGACGGGATT
B2: AAUUCUA (DNA:RNA)
RNA: GGGAGACCGGAAUUCAGAUUGUCCAAUUCUAUUAAAUCCCGUCGUAGCCACCA
DNA 1: CAATCTGAATTCCGGTCTCCC
DNA 2: TGGTGGCTACGACGGGATT
B3: UUUCCUG (DNA:RNA)
RNA: B2 RNA with A25U, A26U, U28C, A31G
DNA 1: CAATCTGAATTCCGGTCTCCC
DNA 2: TGGTGGCTACGACGGGATT
B4: GAACCAA (DNA:RNA)
RNA: B2 RNA with A25G, U27A, U28C, U30A
DNA 1: CAATCTGAATTCCGGTCTCCC
DNA 2: TGGTGGCTACGACGGGATT
B5: GUCUAUA (DNA:RNA)
RNA: B2 RNA with A25G, A26U, U27C, C29A
DNA 1: CAATCTGAATTCCGGTCTCCC
DNA 2: TGGTGGCTACGACGGGATT
B6: GAGUAUA (DNA:RNA)
RNA: B2 RNA with A25G, U27G, C29A
DNA 1: CAATCTGAATTCCGGTCTCCC
DNA 2: TGGTGGCTACGACGGGATT
B7: AUUAGGC (DNA:RNA)
RNA: B2 RNA with A26U, U28A, C29G, U30G, A31C
DNA 1: CAATCTGAATTCCGGTCTCCC
DNA 2: TGGTGGCTACGACGGGATT
B8: CCAUUUA (DNA:RNA)
RNA: B2 RNA with A25C, A26C, U27A, C29U
DNA 1: CAATCTGAATTCCGGTCTCCC
DNA 2: TGGTGGCTACGACGGGATT
B9: CCGAACU (DNA:RNA)
RNA: B1 RNA with A27G, G30C, G31U
DNA 1: CAATCTGAATTCCGGTCTCCC
DNA 2: TGGTGGCTACGACGGGATT

Target: T1, RBFOX1 RRM
Test: EMSA; HiTS-Eq, 1 nM pool, 10 min; buffer printed only for the single-RNA assays: 10 mM Tris pH 7.5, 150 mM NaCl, 3.4 mM EDTA, 0.001% NP-40, 30 C
Conditions: tags: His6 N-terminal (pET28a); label: 5' 32P
Summary of the method: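 Purified RbFox RRM (wild type or mutant) was equilibrated for 10 min in 50 µL with 1 nM of a 5′-radiolabelled pool of RNA with 7 randomized nucleotides, its flanks annealed to DNA oligonucleotides, across increasing protein concentrations. Free RNA was separated by 8% native PAGE, excised, reverse-transcribed, PCR-barcoded and sequenced on an Illumina HiSeq 2500. Relative association constants came from read-count changes of each variant against the control reaction, normalised to the cognate motif.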

Binder | binding signal
B1 | 0.004 KA relative to UGCAUGU
B2 | 0.00109 KA relative to UGCAUGU
B3 | 0.0199 KA relative to UGCAUGU
B4 | 0.000733 KA relative to UGCAUGU
B5 | 0.00523 KA relative to UGCAUGU
B6 | 0.00438 KA relative to UGCAUGU
B7 | 0.00812 KA relative to UGCAUGU
B8 | 0.00484 KA relative to UGCAUGU
B9 | 0.00564 KA relative to UGCAUGU
